# Results from the supplement of paper PMC8728848.
# Some of the results follow.
# B1: Als1 (Candida albicans), P46590 (protein)
# chain: KTITGVFDSFNSLTWSNAANYAFKGPGYPTWNAVLGWSLDGTSANPGDTFTLNMPCVFKYTTSQTSVDLTADGVKYATCQFYSGEEFTTFSTLTCTVNDALKSSIKAFGTVTLPIAFNVGGTGSSTDLEDSKCFTAGTNTVTFNDGDKDISIDVEFEKSTVDPSGYLYASRVMPSLNKVTTLFVAPQCENGYTSGTMGFSSSNGDVAIDCSNIHIGITKGLNDWNYPVSSESFSYTKTCTSNGIQIKYQNVPAGYRPFIDAYISATDVNQYTLAYTNDYTCAGSRLQSKPFTLRWTGYKNSDAGSNGIVIVATTRTVTDSTTAVTTLPFNPSVDKTKTIEILQPIPTTTITTSYVGVTTSYLTKTAPIGETATVIVDVPYHTTTTVTSEWTGTITTTTTRTNPTDSIDTVVVQVP
# Columns and labels:
# Assay in all cases: glycan array binding signal (z-score within array); higher = stronger binding
# Conditions in all cases: glycan notation: IUPAC condensed, linker removed
# [1] = target: Neu5Ac(a2-6)GlcNAc(b1-4)GlcNAc
# Summary of the method: (§1)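 Glycan array data were curated from 3228 arrays in the Consortium for Functional Glycomics database and kept only where the protein sequence was available. Glycan names were converted to IUPAC-condensed notation, and columns mapping to the same glycan were averaged. The binding signal is a within-array Z-score, averaged across arrays of the same protein sequence at different concentrations or buffers and across linkers. Negative Z-scores can be read as non-binding.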
# [2] = target: Neu5Ac(a2-6)GlcNAc(b1-4)GlcNAc(b1-4)GlcNAc
# Summary of the method: as §1
# Neu5Ac(a2-8)Neu5Ac = target: Neu5Ac(a2-8)Neu5Ac
# Summary of the method: as §1
# [3] = target: Neu5Ac(a2-8)Neu5Ac(a2-3)Gal(b1-3)GalNAc(b1-4)[Neu5Ac(a2-3)]Gal(b1-4)Glc
# Summary of the method: as §1
# [4] = target: Neu5Ac(a2-8)Neu5Ac(a2-3)Gal(b1-3)GalNAc(b1-4)[Neu5Ac(a2-8)Neu5Ac(a2-3)]Gal(b1-4)Glc
# Summary of the method: as §1
# [5] = target: Neu5Ac(a2-8)Neu5Ac(a2-3)Gal(b1-4)Glc
# Summary of the method: as §1
# [6] = target: Neu5Ac(a2-8)Neu5Ac(a2-3)Gal(b1-4)GlcNAc
# Summary of the method: as §1
# [7] = target: Neu5Ac(a2-8)Neu5Ac(a2-3)[Gal(b1-3)GalNAc(b1-4)]Gal(b1-4)Glc
# Summary of the method: as §1
# [8] = target: Neu5Ac(a2-8)Neu5Ac(a2-3)[GalNAc(b1-4)]Gal(b1-4)Glc
# Summary of the method: as §1
# [9] = target: Neu5Ac(a2-8)Neu5Ac(a2-8)Neu5Ac
# Summary of the method: as §1
# [10] = target: Neu5Ac(a2-8)Neu5Ac(a2-8)Neu5Ac(a2-3)Gal(b1-4)Glc
# Summary of the method: as §1
# [11] = target: Neu5Ac(a2-8)Neu5Ac(a2-8)Neu5Ac(a2-3)[Gal(b1-3)GalNAc(b1-4)]Gal(b1-4)Glc
# Summary of the method: as §1
# [12] = target: Neu5Ac(a2-8)Neu5Ac(a2-8)Neu5Ac(a2-3)[GalNAc(b1-4)]Gal(b1-4)Glc
# Summary of the method: as §1
# [13] = target: Neu5Ac(a2-8)Neu5Ac(a2-8)Neu5Ac(a2-8)Neu5Ac(a2-3)[GalNAc(b1-4)]Gal(b1-4)Glc
# Summary of the method: as §1
# [14] = target: Neu5Ac(a2-8)Neu5Gc(a2-3)Gal(b1-4)GlcNAc
# Summary of the method: as §1
# [15] = target: Neu5Ac(b2-6)Gal(b1-4)GlcNAc
# Summary of the method: as §1
# Neu5Ac(b2-6)GalNAc = target: Neu5Ac(b2-6)GalNAc
# Summary of the method: as §1
# [16] = target: Neu5Ac9Ac(a2-3)Gal(b1-3)GlcNAc
# Summary of the method: as §1
# [17] = target: Neu5Ac9Ac(a2-3)Gal(b1-4)GlcNAc
# Summary of the method: as §1
# [18] = target: Neu5Ac9Ac(a2-6)Gal(b1-4)GlcNAc
# Summary of the method: as §1
# [19] = target: Neu5Gc(a2-3)Gal(b1-3)GlcNAc
# Summary of the method: as §1
# [20] = target: Neu5Gc(a2-3)Gal(b1-3)[Fuc(a1-4)]GlcNAc
# Summary of the method: as §1
# Neu5Gc(a2-3)Gal(b1-4)Glc = target: Neu5Gc(a2-3)Gal(b1-4)Glc
# Summary of the method: as §1
# [21] = target: Neu5Gc(a2-3)Gal(b1-4)GlcNAc
# Summary of the method: as §1
# [22] = target: Neu5Gc(a2-3)Gal(b1-4)GlcNAc(b1-3)Gal(b1-4)GlcNAc(b1-2)Man(a1-3)[Neu5Gc(a2-3)Gal(b1-4)GlcNAc(b1-3)Gal(b1-4)GlcNAc(b1-2)Man(a1-6)]Man(b1-4)GlcNAc(b1-4)GlcNAc
# Summary of the method: as §1
# [23] = target: Neu5Gc(a2-3)Gal(b1-4)[Fuc(a1-3)]GlcNAc
# Summary of the method: as §1
# [24] = target: Neu5Gc(a2-6)Gal(b1-4)GlcNAc
# Summary of the method: as §1
# Neu5Gc(a2-6)GalNAc = target: Neu5Gc(a2-6)GalNAc
# Summary of the method: as §1
# [25] = target: Neu5Gc(a2-8)Neu5Ac(a2-3)Gal(b1-4)GlcNAc
# Summary of the method: as §1
# [26] = target: Neu5Gc(a2-8)Neu5Gc(a2-3)Gal(b1-4)GlcNAc
# Summary of the method: as §1
# [27] = target: Neu5Gc(a2-8)Neu5Gc(a2-3)Gal(b1-4)GlcNAc(b1-3)Gal(b1-4)GlcNAc
# Summary of the method: as §1
# [28] = target: Neu5Gc(a2-8)Neu5Gc(a2-6)Gal(b1-4)GlcNAc
# Summary of the method: as §1
# [29] = target: Neu5Gc(b2-6)Gal(b1-4)GlcNAc
# Summary of the method: as §1
binder,measurement,setting,value
B1,glycan array binding signal (z-score),[1],-0.313
same,glycan array binding signal (z-score),[2],0.779
same,glycan array binding signal (z-score),Neu5Ac(a2-8)Neu5Ac,-0.045
same,glycan array binding signal (z-score),[3],-0.627
same,glycan array binding signal (z-score),[4],-0.513
same,glycan array binding signal (z-score),[5],-0.226
same,glycan array binding signal (z-score),[6],1.4
same,glycan array binding signal (z-score),[7],-0.389
same,glycan array binding signal (z-score),[8],-0.372
same,glycan array binding signal (z-score),[9],-0.244
same,glycan array binding signal (z-score),[10],-0.083
same,glycan array binding signal (z-score),[11],0.612
same,glycan array binding signal (z-score),[12],-0.209
same,glycan array binding signal (z-score),[13],-0.38
same,glycan array binding signal (z-score),[14],-0.049
same,glycan array binding signal (z-score),[15],-0.341
same,glycan array binding signal (z-score),Neu5Ac(b2-6)GalNAc,0.73
same,glycan array binding signal (z-score),[16],-0.459
same,glycan array binding signal (z-score),[17],-0.53
same,glycan array binding signal (z-score),[18],-0.398
same,glycan array binding signal (z-score),[19],-0.535
same,glycan array binding signal (z-score),[20],-0.349
same,glycan array binding signal (z-score),Neu5Gc(a2-3)Gal(b1-4)Glc,1.07
same,glycan array binding signal (z-score),[21],0.201
same,glycan array binding signal (z-score),[22],-0.622
same,glycan array binding signal (z-score),[23],0.975
same,glycan array binding signal (z-score),[24],-0.432
same,glycan array binding signal (z-score),Neu5Gc(a2-6)GalNAc,-0.745
same,glycan array binding signal (z-score),[25],4.63
same,glycan array binding signal (z-score),[26],0.794
same,glycan array binding signal (z-score),[27],0.407
same,glycan array binding signal (z-score),[28],0.851
same,glycan array binding signal (z-score),[29],0.473
